“And” between values parts separate entries of the source, which are not always exact repeats. Identical values can stand only once. The whole screen tested about 420,000 compounds, of which about 50,000 (12%) were called active. The shares of active, inactive and inconclusive entries below differ from those in the screen. The call rests on the fitted dose curve; in most records, active means well fitted inhibition curve with a large enough effect; inconclusive means small, poorly fitted or top-dose-only effect; inactive means flat fitted curve, though single readings scatter. Potencies of inconclusive entries are doubtful fits and often do not repeat.
Assay: qHTS for Inhibitors of human tyrosyl-DNA phosphodiesterase 1 (TDP1): qHTS in cells in presence of CPT; further: nearly all actives have a fitted effect of over 55% in size
Settings: chicken DT40 Tdp1-/-;hTDP1 cells + 20 nM CPT, ATP luminescence, 48 h; activity change, negative = growth inhibition: at 46.2 µM (top of the series) unless noted
How it was run: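 Chicken DT40 Tdp1-/- cells complemented with human TDP1, 400 cells/well, exposed to compounds plus 20 nM camptothecin for at least 48 h at 37 C; viability read as ATP content by CellTiter-Glo luminescence.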
On the % scale 0 is the no-effect control and ±100 the full control effect; potency means the concentration at half of the fitted maximal effect; tags describe the fitted curve by direction and shape.

SMILES	activity change, negative = growth inhibition	Potency
CCCCC(=O)N/N=C/c1c(O)n(CC)c(=S)[nH]c1=O	inactive: -2.78%	–
COc1ccc(C2=CC(c3ccc(OC)c(OC)c3)c3c(c4ccccc4oc3=O)O2)cc1OC (configuration not stated)	–	inconclusive: 23.1 µM [inhibitor, single point]
CN1C(=O)C(=CN2CCN(C(=O)c3ccco3)CC2)C(=O)N(C)C1=S	–	inconclusive: 20.6 µM [inhibitor, single point]
Cl.Cl.Cl.Cl.Cl.Cl.N.N.N.N.NNNNN.NNNNN.O.O.[Ru].[Ru].[Ru]	–	inconclusive: 26.6 µM [inhibitor, partial curve, poor fit]
C[C@]12C=CC(=O)C=C1C=C[C@@H]1C2CC[C@]2(C)C(=O)CCC12 (some centres not stated)	–	inconclusive: 29.1 µM [inhibitor, single point]
Cc1ccc(C)c(NS(=O)(=O)c2ccc(OCC(=O)NCc3cccnc3)cc2)c1	–	inconclusive: 29.1 µM [inhibitor, single point]
O=c1c2ccccc2nc(-c2ccoc2)n1-c1ccccc1	inactive: -26.4%	–
CSc1ncc(/C=C2/C(=O)NC(=O)N(C3CCCCC3)C2=O)cn1	inactive: -2.26%	–
OC(CC#CCN1CCCCCC1)(c1ccccc1)C1CCCC1 (configuration not stated)	–	inconclusive: 29.1 µM [inhibitor, single point]
CCOC(=O)C1=C(N)OC2=C(C(=O)CCC2)C12C(=O)N1c3c(ccc(C)c32)C(C)=CC1(C)C (configuration not stated)	–	inconclusive: 23.1 µM [inhibitor, single point]
c1ccc2c(c1)CNCc1cnnn1-2	inactive: -5.43%	–
COC(=O)C1=C(c2ccc(-c3ccccc3)c(F)c2)C[C@@H]2CC[C@H]1N2C(=O)NCCOc1ccccc1Cl	–	inconclusive: 20.6 µM [inhibitor, single point]
CCOc1ccc(N=Cc2c(O)n(CCc3ccc(OC)c(OC)c3)c(=O)[nH]c2=O)cc1	–	inconclusive: 29.1 µM [inhibitor, single point]
COP(=O)(OC)c1nc(-c2cccc3ccccc23)oc1NCCc1ccccc1	–	inconclusive: 29.1 µM [inhibitor, single point]
C/C=C1/CC(C)C(C)(O)C(=O)OCC2CCN3CCC(OC1=O)C23 (configuration not stated)	inactive: -4.14%	–
C[C@@H]1CN([C@H](C)CO)C(=O)CCCn2cc(nn2)CO[C@H]1CN(C)C(=O)Oc1cccc2ccccc12	inactive: 11.4%	–
O=C1NC(=O)C(=Cc2ccc(Sc3ccccc3)o2)C(=O)N1	–	inconclusive: 14.6 µM [inhibitor, partial curve]
COc1ccc(CCNC(=O)c2cnc3sc(N4CCCCCC4)nn3c2=O)cc1	–	active: 20.6 µM
CCOC(=O)c1nsnc1NCCCl	inactive: -2.54%	–
Fc1cccc(-c2ccc3c(c2)CN(C(=S)NCCc2ccccc2)Cc2cnnn2-3)c1	–	inconclusive: 23.1 µM [inhibitor, single point]
COC1=C(C)C(=O)c2c(c(COC(N)=O)c3n2C[C@@H]2[C@@H]3N2C)C1=O (some centres not stated)	–	active: 0.1 µM
COc1cc([C@@H]2c3cc4c(cc3[C@H](OC(C)=O)[C@H]3COC(=O)[C@H]23)OCO4)cc(OC)c1OC	–	active: 0.0794 µM
ON1C2CCCCC2N(O)C1c1ccccc1F (configuration not stated)	inactive: -8.52%	–
CC1CCCCN1Cc1ccc(Cl)nc1 (configuration not stated)	inactive: -2.82%	–

SMILES	activity change, negative = growth inhibition	Potency
COc1ccc(OC)c(CNCCc2ccc(OC)c(OC)c2)c1	inactive: 13.3%	–
CCOC(=O)C1(CCCc2ccccc2)CCN(C2CCCC2)CC1	–	active: 18.4 µM
Cn1cccc1CNCCc1ccccc1F	inconclusive: -30.9% [inhibitor]	–
Cn1cccc1/C=C1\C(=O)NC(=O)N(CCC2=CCCCC2)C1=O	–	active: 16.4 µM
COc1ccc(CC(C)NC2CCCCCC2)cc1 (configuration not stated)	–	inconclusive: 4.61 µM [inhibitor, partial curve, poor fit]
Cc1ccc(S(=O)(=O)N2CCCCC2)cc1NC(=O)CN1CC=C(c2ccccc2)CC1	–	active: 8.2 µM
C[C@H]1CNC(=O)c2c(C(=O)N3CCN(C(=O)OC(C)(C)C)CC3)ncn21	–	active: 25.9 µM
CC1CC2CC(=O)CCC2(C)C2CCC3(C)C(O)CCC3C12 (configuration not stated)	–	inconclusive: 0.651 µM [inhibitor, full curve, poor fit]
CCOC(=O)c1c(C)c(P(=S)(N2CCOCC2)N2CCOCC2)n(C)c1C	inactive: -3.98%	–
Cc1ccc(C=C2C(Cl)=C(Cl)C(Cl)=C2Cl)cc1	–	active: 3.26 µM
CC1CC(C)CN(S(=O)(=O)c2ccc3c(c2)oc(=O)n3CC(=O)N(C)Cc2ccccc2)C1 (configuration not stated)	–	inconclusive: 29.1 µM [inhibitor, single point]
O=C(NC1CCCCC1)N1Cc2cc(-c3ccccc3)ccc2-n2nncc2C1	–	inconclusive: 29.1 µM [inhibitor, single point]
CN1CC(C(=O)c2ccc(Cl)cc2)C(c2ccccc2)C1 (configuration not stated)	–	inconclusive: 29.1 µM [inhibitor, single point]
Nc1ccccc1-[n+]1c(-c2ccccc2)cc(-c2ccccc2)cc1-c1ccccc1	–	active: 6.51 µM
O=C(Nc1ccc(OC(F)(F)F)cc1)Oc1ccccc1N1CCOCC1	–	inconclusive: 29.1 µM [inhibitor, single point]
O=S(=O)(F)c1ccc2nc(-c3cccc(Sc4ccccc4)c3)cc(Cl)c2c1	inactive: 6.66%	–
CCOC(=O)[C@]12Cc3cc(Cl)ccc3[C@H]1N(Cc1ccccc1)C(=O)c1cc(OC)ccc12	–	active: 4.61 µM
CCOc1ccc(C=C2C(=O)NC(=S)NC2=O)cc1OCC	inactive: 1.19%	–
CC(C)CCCn1c(O)c(/C=C2/C=CC=N2)c(=O)[nH]c1=O	–	active: 5.8 µM
CC/C(=N\Nc1ccccc1)c1c(O)n(C)c(=O)n(C)c1=O	–	inconclusive: 18.4 µM [inhibitor, single point]
O=C1c2ccccc2C(=O)N1SC1CCCCC1	–	active: 3.66 µM
COC(=O)C1=C(c2cccc(OCc3ccccc3)c2)C[C@@H]2CC[C@H]1N2C(=O)NCc1cccc(OC)c1	–	active: 23.1 µM
CC[C@H](C)[C@H](NC(=O)[C@H](CCCN=C(N)N)NC(=O)[C@H](CCCN=C(N)N)NC(=O)[C@H](CC(C)C)NC(=O)[C@H](Cc1ccccc1)NC(=O)CNC(=O)CNC(=O)[C@@H](N)Cc1ccc(O)cc1)C(=O)N[C@@H](CCCN=C(N)N)C(=O)N1CCC[C@H]1C(=O)N[C@@H](CCCCN)C(=O)N[C@@H](CC(C)C)C(=O)N[C@@H](CCCCN)C(=O)O	inactive: 7.5% [at 4.12 µM]	–
CCCCN1C(=O)NC(=O)C2(Cc3ccccc3N3CCOCC32)C1=O (configuration not stated)	inactive: -6.94%	–

SMILES	activity change, negative = growth inhibition	Potency
COc1ccc(/C=C2/C(=O)NC(=O)N(c3ccccc3)C2=O)cc1CN1C(=O)c2ccccc2C1=O	–	inconclusive: 29.1 µM [inhibitor, single point]
COC(=O)N(c1ccccc1)P(=O)(Oc1ccccc1)Oc1ccccc1	inactive: 3.59%	–
C[N+]1(CCF)[C@@H]2CC[C@H]1CC(OC(=O)C(O)(c1ccccc1)c1ccccc1)C2 (some centres not stated)	inactive: 11%	–
COCCO[C@H]1CCC2C3CC=C4C[C@@H](O)CC[C@]4(C)C3CC[C@@]21C (some centres not stated)	–	inconclusive: 29.1 µM [inhibitor, single point]
CN(C)P1(N(C)C)=Nc2c(c(N)nn2C)C(c2ccccc2)=N1	–	inactive
O=Cc1cn(Cc2ccc(F)cc2Cl)c2ccccc12	inconclusive: -31.9% [inhibitor]	–
Cc1ccc(S(=O)(=O)c2nc(-c3ccccc3Cl)oc2N(C)C2CCN(C)CC2)cc1	–	inconclusive: 18.4 µM [inhibitor, single point]
O=C(COc1ccc2ccccc2c1)N1CCN(CC2CC3C=CC2C3)CC1 (configuration not stated)	–	active: 18.4 µM
O=C1c2ccccc2C(=O)C1C(=O)C(c1ccccc1)c1ccccc1	–	inconclusive: 29.9 µM [inhibitor, single point]
CN(C)Cc1c[nH]c2ccccc12	–	active: 11.6 µM
CCOCCSc1nc2c(c(-c3cccs3)c1C#N)CC/C2=C/c1cccs1	–	inconclusive: 29.1 µM [inhibitor, single point]
COc1ccc(-c2nc(CN3C(=O)CN=C(c4ccccc4)c4ccccc43)c(C)o2)cc1	–	inconclusive: 18.4 µM [inhibitor, single point]
CCOC(=O)Nc1ccc2c(c1)N(C(=O)CN(C)C)c1ccccc1CC2	–	inactive and inconclusive: 43.3 µM [inhibitor, single point]
CCOC(C[n+]1c(-c2ccccc2)cc(C)cc1-c1ccccc1)OCC	–	active: 1.64 µM
CC1(C)Cc2c(sc3nc4n(-c5ccccc5)c(=O)c(CCC(=O)O)nn4c(=O)c23)CO1	–	inconclusive: 29.1 µM [inhibitor, single point]
COc1ccc(NC(=O)N2CCC3(CC2)OCCO3)cc1	–	inconclusive: 23.1 µM [inhibitor, single point]
Nc1nnc(CCN2CCCCC2)s1	inactive: 17.1%	–
CCOP(=O)(OCC)C(NC(=O)c1cccc([N+](=O)[O-])c1)C(Cl)(Cl)Cl (configuration not stated)	inactive: -1.73%	–
CC1Cc2ccccc2N1Cc1cccc(S(=O)(=O)N(C)C)c1 (configuration not stated)	–	inconclusive: 18.4 µM [inhibitor, partial curve]
CCOC(=O)C(O)(c1ccc(NC(=O)NC)cc1)C(F)(F)F (configuration not stated)	inactive: -9.95%	–
Brc1cccc(CNCCc2ccc3c(c2)OCO3)c1	–	inconclusive: 29.1 µM [inhibitor, single point]
COc1ccc(C(=O)Nc2ccccc2-c2nnn(CC(=O)Nc3ccc4c(c3)OCCO4)n2)cc1	–	inconclusive: 29.1 µM [inhibitor, single point]
COC(=O)C1=C(c2cc3ccccc3o2)C[C@@H]2CC[C@H]1N2C(=O)NCCO	inactive: -11.6%	–
COC(=O)C1=C(c2ccccc2OCc2ccccc2)C[C@@H]2CC[C@H]1N2C(=O)NCCCOC(C)C	–	active: 16.4 µM

From PubChem BioAssay AID686979 (National Center for Advancing Translational Sciences (NCATS), 2013)
